Measured values: PubChem BioAssay AID1159614 (National Center for Advancing Translational Sciences (NCATS), 2016)
About 65 (0.1%) of roughly 45,000 compounds were called active. Calls follow the shape of the dose curve; as a rule, active = well fitted activation curve with a large enough effect; inconclusive = small, poorly fitted or top-dose-only effect; inactive = no such curve, though single readings can be large or run the other way. Some of the results follow.

Each compound was assayed against Galactocerebrosidase (Homo sapiens) (UniProt P54803) (assay: A Novel Cell-Based Assay to Identify Small Molecules for B -Galactocerebrosidase). Settings: 145M-Twi-hGALC-G270D cells (Twitcher mouse brain line with human GALC G270D), HMU-beta-Gal fluorescence, 48 h; series mostly up to 57.5 µM; activation: at the top concentration.
Summary of the method: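 Live 145M-Twi cells (Twitcher mouse brain-derived, GALC-null) stably expressing human GALC-G270D, with a wild-type GALC line, were compound-treated. Residual GALC activity was then read as fluorescence from 0.1 mM final HMU-β-gal at pH 5.2; higher signal means activation.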
Also: 0% is about no effect; nearly all actives have a fitted effect of over 65% in size.

Chain of UniProt P54803 (P54803 whole entry, looked up): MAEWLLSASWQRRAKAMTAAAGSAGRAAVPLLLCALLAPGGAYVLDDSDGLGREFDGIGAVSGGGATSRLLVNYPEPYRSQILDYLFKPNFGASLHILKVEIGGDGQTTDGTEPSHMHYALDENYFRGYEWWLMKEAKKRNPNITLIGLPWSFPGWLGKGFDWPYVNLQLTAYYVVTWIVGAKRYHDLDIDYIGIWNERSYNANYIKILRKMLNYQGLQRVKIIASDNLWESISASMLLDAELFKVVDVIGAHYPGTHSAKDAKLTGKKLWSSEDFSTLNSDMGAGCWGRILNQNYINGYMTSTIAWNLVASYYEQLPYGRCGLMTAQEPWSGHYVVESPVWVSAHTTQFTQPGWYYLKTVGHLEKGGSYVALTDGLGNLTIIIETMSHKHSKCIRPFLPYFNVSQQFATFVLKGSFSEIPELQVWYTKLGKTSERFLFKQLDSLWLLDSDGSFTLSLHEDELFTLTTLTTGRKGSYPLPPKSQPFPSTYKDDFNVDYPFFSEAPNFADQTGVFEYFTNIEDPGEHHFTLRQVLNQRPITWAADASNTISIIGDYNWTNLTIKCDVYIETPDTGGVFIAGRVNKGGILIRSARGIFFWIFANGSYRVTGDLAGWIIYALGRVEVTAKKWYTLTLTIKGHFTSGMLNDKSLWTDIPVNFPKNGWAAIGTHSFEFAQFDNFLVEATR

activation, inactive:
Cc1cccc(N2CCN(C(=O)Cn3cnc4sc(C)c(S(=O)(=O)N5CCN(c6ncccn6)CC5)c4c3=O)CC2C)c1 (configuration not stated) 5.06%
FC(F)(F)c1cccc(-c2nnn3c2nc(NC2CCCCC2)c2ccccc23)c1 -11.2%
Cc1cccc(-c2nc(CSCC(=O)N3CCN(c4ccccc4)CC3)c(C)o2)c1 -10.2%
COc1ccccc1N1CCN(c2ccc(-c3nc(-c4ccccc4C)no3)cc2[N+](=O)[O-])CC1 -10.6%
COc1cc(N)c(Cl)cc1C(=O)NC1CCN(Cc2ccccc2)CC1 -18.4%
COc1ccccc1Cc1nc2ccccc2nc1SCC(=O)N1CCc2ccccc21 -14.6%
CCOc1ccc(CCNC(=O)c2cc(=O)[nH]c3ccc(S(=O)(=O)N4CCCCC4)cc23)cc1OCC -1.9%
COc1cccc(NC(=O)C(=O)NCCc2csc(-c3ccc(C(F)(F)F)cc3)n2)c1 -10.3%
CCOc1ccccc1CNC(=O)C1CCN(S(=O)(=O)c2c(C)noc2/C=C/c2ccc(C)cc2)CC1 4.16%
S=P(N1CC1)(N1CC1)N1CC1 -8.52% [at 129 µM]
COc1cc([N+](=O)[O-])ccc1NC(=O)N1CCN(c2cc(-c3noc(C)n3)ccc2C)CC1 -12.3%
COc1ccc(NC(=O)C(C)n2nnc3sc(-c4ccccc4)cc3c2=O)cc1Cl (configuration not stated) -12.4%
FC(F)(F)c1cccc(N2CCN(Cc3nnc(-c4ccc5c(c4)OCO5)o3)CC2)c1 -13.9%
O=C(Cc1ccc(F)cc1)NCc1nc2cccnc2n1Cc1ccc(F)cc1 10.2%
Cc1ccccc1OCC(=O)Nc1ccc(OCc2cc(=O)n3ccsc3n2)cc1 -13.1%
CCOC(=O)c1cccc(NC(=O)N2CCC(CN3CCc4ccccc4C3)CC2)c1 -1.42%
CC1CCCN(Cc2nc3c(c(=O)n(C)c(=O)n3C)n2Cc2ccc(Cl)cc2Cl)C1 (configuration not stated) -27.5%
CC(C)(C)C1CCc2c(sc(NC(=O)CCC(=O)O)c2C(=O)Nc2ccccc2C(F)(F)F)C1 (configuration not stated) -14.4%
CCCc1cc(=O)oc2cc(C)c3c(-c4cccc(OC)c4)coc3c12 -20.8%
NS(=O)(=O)c1ccc(CCNC(=O)c2ccc3nc(Cc4ccccc4)oc3c2)cc1 -12.6%
CCOC(=O)c1cccc(NC(=O)N2CC(CC)Sc3ccccc32)c1 (configuration not stated) -9.89%
COc1cccc(-c2nc(SCC(=O)NCC3CCCO3)c(-c3ccc(F)cc3)[nH]2)c1 (configuration not stated) -9.69%
CCOc1ccc(S(=O)(=O)c2c[nH]c3ccccc3c2=O)cc1 -1.16%
COc1ccc(CCNC(=O)C2CCN(c3ncnc4c3nc3n4CCCCC3)CC2)c(OC)c1 -6.78%
Cc1ccccc1C(=O)Nc1ccc2nc(Nc3cccc(C(F)(F)F)c3)cc(C)c2c1 -0.139%
CN(C)CCNC(=O)CN1C(=O)CCn2nc(-c3cn(C)c4ccccc34)cc21 -16.8%
CCc1ccc(NC(=O)Cn2ncc3c(C)n(Cc4cccc(Cl)c4)c(C)c3c2=O)cc1 -12.1%
Cc1cc(C)cc(-n2nnc(-c3nsc(NC(=O)c4ccccc4Cl)n3)c2C)c1 -1.99%
COC(=O)c1ccc2c(=O)n(CCCCCC(=O)N3CCN(c4cc(Cl)ccc4C)CC3)c(=O)[nH]c2c1 -7.35%
COc1cccc(CNC(=O)c2ccc(-c3nc(CS(=O)(=O)c4ccccc4)c(C)o3)cc2)c1 -7.12%
CCC1CCCCN1C(=O)CSc1n[nH]c(-c2ccccc2Cl)n1 (configuration not stated) -15.8%
CCN(c1ccc(OC)cc1)S(=O)(=O)c1nnc(NC(=O)c2ccccc2C)s1 0.26%
COC(=O)c1cc2sccc2n1Cc1nc(-c2cccc(Br)c2)oc1C -12.7%
O=C(Nc1cccc(C(=O)N2CCN(c3ccccc3F)CC2)c1)c1nsc2ccccc12 -11%
COc1ccccc1Nc1c2c(nc3ccc(NC(=O)c4cccc(OC)c4OC)cc13)CCCC2 -23.4%
O=C(Nc1ccc(C(F)(F)F)cc1)C1CCCN(S(=O)(=O)c2cccc3cccnc23)C1 (configuration not stated) -30.3%
CC(=O)Nc1ccc(S(=O)(=O)NCc2ccc(C(=O)NCc3ccc(Cl)cc3)cc2)cc1 -10.9%
Cc1ccc(Cn2c(CNS(=O)(=O)c3ccc(Cl)s3)nc3cccnc32)cc1 0.654%
Cc1cccc(-c2nc(SCC(=O)NCc3ccco3)c3c(=O)n(C)c(=O)n(C)c3n2)c1 -15%
Cc1cc2[nH]c(=O)c(=O)[nH]c2cc1S(=O)(=O)N1CCN(c2cccc(C)c2C)CC1 -12.7%
COc1ccccc1N1CCN(c2nc3c(S(=O)(=O)c4ccc(C)c(C)c4)nnn3c3ccc(Cl)cc23)CC1 -10%
CCOC(=O)C(=O)Nc1c(C(=O)Nc2cccc(F)c2)oc2ccccc12 -11.8%
Cc1cccc(-n2ccnc2SCC(=O)Nc2nc3ccccc3s2)c1 -22.6%
CCN(CCCNC(=O)c1nn(-c2ccc(OC)c(Cl)c2)c(=O)c2c1c1ccccc1n2C)c1cccc(C)c1 -10.9%
CCOC(=O)c1ccc(NS(=O)(=O)c2cc(Br)cc3c2N(C(C)=O)C(C)C3)cc1 (configuration not stated) -13.1%
CCc1ccccc1Nc1cc(C(=O)NC2CCC(C)CC2)c2ccccc2n1 (configuration not stated) -15.6%
COc1ccc(CNC(=O)c2cc(-c3ccc(C)c(C)c3)n[nH]2)cc1 -13.9%
CCc1c(C)sc(NC(=O)C2c3ccccc3Oc3ccccc32)c1C(=O)OC(C)C 1.57%
COc1ccc(OC)c(C2C(C(=O)Nc3ccccc3OC)=C(C)Nc3c(C(=O)Nc4ccc(F)cc4)cnn32)c1 (configuration not stated) -5.47%
O=C(Nc1cc(Cl)cc(Cl)c1)c1cc(S(=O)(=O)N2CCc3ccccc3C2)ccc1F -11.7%
CCOC(=O)c1cccc(NC(=O)C2CCCN(c3nnc(C)c4c(C)n(-c5ccccc5)nc34)C2)c1 (configuration not stated) -7.56%
COc1ccc(NC(=O)c2cc3cc(C)ccc3n2C)cc1 -8.2%
Cc1ccc(-c2nnc3ccccc3c2C(=O)Nc2cccc(Cl)c2)cc1 -3.81%
Cn1c(=O)c(=O)n(C)c2cc(N3CCOCC3)c(NS(=O)(=O)c3ccc(F)c(Cl)c3)cc21 -9.62%
CC(C)(C)OC(=O)N1CCC(c2c(C(=O)NCc3ccc4c(c3)OCO4)cnn2-c2ccccc2Cl)CC1 -12%
COc1ccc(NC(=O)c2ccc3c(c2)nnn3C2CCCC2)cc1Cl -11.2%
Cc1ccc(Cn2c(C(=O)O)c(CNCc3cccs3)c3ccc(C)cc32)cc1 -2.32%
COc1cc(NC(=O)NCCn2nnc3cc(S(=O)(=O)N(C)C)ccc32)cc(OC)c1 0.841%
Cc1ccc(Cl)cc1NC(=O)c1ccc2snnc2c1 -14.5%
COc1ccc(C(=O)Nc2nnc(S(=O)(=O)N(CC(C)C)c3ccccc3)s2)cc1 -3.76%
CNS(=O)(=O)c1cn(CC(=O)Nc2ccc(C)c(N(C)C)c2)cc1S(=O)(=O)NC -6.44%
CCN(C(=O)c1cc(S(=O)(=O)N2CCc3ccccc32)cn1C)c1cccc(C)c1 -9.17%
CC1=C(C(N)=O)C(c2ccc(F)cc2)n2nc(-c3ccc(N(C)C)cc3)nc2N1 (configuration not stated) -18.4%
Cc1ccc(Cl)cc1N1CCN(C(=O)c2cccn2-c2nnc(N3CCCC3)s2)CC1 -12.3%
Oc1ccc(C(O)CNCCCCCCNCC(O)c2ccc(O)c(O)c2)cc1O (configuration not stated) -24.1%
Cc1ccc2c(=O)c(C(=O)c3ccc(F)cc3)cn(CC(=O)NCc3ccccc3Cl)c2n1 -18.7%
Cc1ccc(-c2nn(CC(=O)NC3CCCCC3)c3c2cnc2ccccc23)cc1 -17%
Cc1cccc(C(=O)OCc2cc(=O)n3nc(C4CCCCC4)sc3n2)c1 -13.2%
COc1ccc2[nH]c(S(=O)Cc3ncc(C)c(OC)c3C)nc2n1 (configuration not stated) -4.44%
O=C(Cc1cccs1)NC1CC(=O)N(c2ccc(Cl)cc2)C1 (configuration not stated) -11.5%
Cc1ccc(-c2nn3c(-c4ccccc4)nnc3c3ccccc23)cc1 -8.36%
CC(C)Sc1ncc(Cl)c(C(=O)N(Cc2ccc(F)cc2)C2CCS(=O)(=O)C2)n1 (configuration not stated) -15.2%
Cc1ccc(NC(=O)CN2C(=O)C(C)(C)c3ccccc32)cc1 -8.15%
CC1=C(C(=O)Nc2ccc(C)cc2)C(c2ccc(Cl)cc2)n2nnnc2N1 (configuration not stated) -20.4%
CCOc1ccc(N2CC(NC(=O)Cc3ccccc3)CC2=O)cc1 (configuration not stated) -17.6%
COc1ccc(N2Cc3cccc(C(=O)Nc4ccc(C)c(C)c4)c3C2=O)cc1 4.41%
CCc1cccc(N2C(=O)CS(=O)(=O)C23C(=O)N(Cc2ccc(F)cc2)c2ccc(C)cc23)c1 (configuration not stated) -23.1%
O=C(NCCC1=CCCCC1)c1ccc2c(c1)N(Cc1ccccc1F)C(=O)c1ccccc1S2(=O)=O -15.1%
CCOC(=O)c1cc(-c2ccccc2)n(-c2cccc(C(=O)N(CC)c3ccccc3)c2)c1C 3.89%
CCN1c2cc(C)ccc2-n2cccc2C12CCN(C(=O)Nc1cc(OC)c(OC)c(OC)c1)CC2 -2.79%
Cc1ccc(S(=O)(=O)c2nc(-c3ccco3)oc2SCc2ccccc2Cl)cc1 -37.2%
CCOC(=O)c1c(NC(=O)c2ccc(S(=O)(=O)N3CCCC(C)C3)cc2)sc2c1CCN(C(C)C)C2 (configuration not stated) -20%
COc1ccc(N2CCN(C(=O)NCc3noc4ccccc34)CC2)cc1 -11.2%
COc1cccc(NC(=O)C2CCCN2S(=O)(=O)c2ccc3c(c2)C(C)(C)C(=O)N3C)c1 (configuration not stated) 3.91%
Cc1ccc2oc3c(c(=O)c2c1)C(c1cccc(O)c1)N(Cc1ccccc1Cl)C3=O (configuration not stated) -19.5%
Cc1cc(C)cc(-n2ccn3c(CC(C)(C)CC(=O)O)nnc3c2=O)c1 3.12%
CC(C)c1ccc2oc(-c3cccc(NC(=O)c4ccc5c(c4)OCCO5)c3)nc2c1 -18.9%
Cc1c2cnn(-c3ccccc3)c(=O)c2c(C)n1C(C)C(=O)Nc1ccc(Br)cc1F (configuration not stated) -19.4%
Cc1ccc(-n2c(SCC(=O)Nc3cccc(F)c3)nc3c(oc4ccccc43)c2=O)cc1C 10.5%
N#Cc1ccccc1Cn1c(=O)n(Cc2ccc(C(=O)NC3CCN(Cc4ccccc4)CC3)cc2)c(=O)c2ccccc21 -7.92%
CCOc1ccc(/C=C/c2nc(C#N)c(Nc3ccc(OC)cc3)o2)cc1 -8.35%
CCCOc1ccc(CN(C(=O)c2nc(SC(C)C)ncc2Cl)C2CCS(=O)(=O)C2)cc1 (configuration not stated) -9.91%
